Hit rate of the full screen: of about 310,000 compounds, about 2,200 (0.71%) showed an effect of 50% or more. The effect is printed as a negative number. The list shows a part of the results.
biological target: human ether-à-go-go-related gene (hERG) potassium channel (human, UniProt Q12809); test: primary screen, population patch clamp on CHO cells stably expressing hERG
Sequence (Q12809 whole entry, looked up): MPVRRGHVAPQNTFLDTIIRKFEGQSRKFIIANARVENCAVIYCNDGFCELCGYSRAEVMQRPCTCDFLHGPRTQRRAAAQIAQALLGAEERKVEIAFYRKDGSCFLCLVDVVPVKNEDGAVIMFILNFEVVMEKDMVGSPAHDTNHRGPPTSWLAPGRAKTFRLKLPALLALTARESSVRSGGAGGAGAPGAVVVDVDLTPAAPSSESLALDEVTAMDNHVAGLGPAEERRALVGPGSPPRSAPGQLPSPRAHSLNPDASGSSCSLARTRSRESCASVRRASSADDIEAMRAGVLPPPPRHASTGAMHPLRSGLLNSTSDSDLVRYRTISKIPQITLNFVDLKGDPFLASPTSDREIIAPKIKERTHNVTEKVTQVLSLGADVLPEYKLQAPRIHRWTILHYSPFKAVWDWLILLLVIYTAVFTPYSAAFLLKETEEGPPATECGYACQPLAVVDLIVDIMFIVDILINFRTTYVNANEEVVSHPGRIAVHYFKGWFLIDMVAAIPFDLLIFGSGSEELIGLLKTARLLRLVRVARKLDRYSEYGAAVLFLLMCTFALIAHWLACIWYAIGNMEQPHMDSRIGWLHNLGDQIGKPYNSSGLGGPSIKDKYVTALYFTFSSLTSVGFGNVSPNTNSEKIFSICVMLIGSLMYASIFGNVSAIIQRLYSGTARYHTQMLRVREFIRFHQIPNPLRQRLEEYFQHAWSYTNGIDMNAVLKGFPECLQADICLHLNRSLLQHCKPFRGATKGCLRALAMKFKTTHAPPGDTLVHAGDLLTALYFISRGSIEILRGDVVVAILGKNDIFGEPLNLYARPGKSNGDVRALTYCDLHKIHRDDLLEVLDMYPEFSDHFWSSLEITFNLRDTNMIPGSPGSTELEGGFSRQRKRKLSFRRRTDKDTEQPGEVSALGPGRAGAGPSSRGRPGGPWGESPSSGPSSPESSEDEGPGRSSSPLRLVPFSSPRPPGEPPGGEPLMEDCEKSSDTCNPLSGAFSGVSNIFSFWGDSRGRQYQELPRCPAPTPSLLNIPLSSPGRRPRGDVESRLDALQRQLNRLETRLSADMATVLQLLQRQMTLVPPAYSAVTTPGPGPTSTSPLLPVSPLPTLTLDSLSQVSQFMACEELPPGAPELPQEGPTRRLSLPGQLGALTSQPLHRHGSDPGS

Row | SMILES | hERG current change (%, negative = inhibition) at 1uM [%]
1 | O=C(CC1C(=O)NCCN1Cc1ccc(F)cc1)NCCN1CCCc2ccccc21 (stereo not drawn) | -30.9
2 | COc1ccc(S(=O)(=O)N(c2onc(C)c2Cl)S(=O)(=O)c2ccc(OC)c(OC)c2)cc1OC | 14.6
3 | CSc1ccc(CN2CCC(n3nccc3NC(=O)c3ccccc3C)CC2)cc1 | -83.8
4 | O=C(Nc1cccc(F)c1)Nc1c[nH]c(=O)[nH]c1=O | 9.77
5 | Cc1ccc(C)c(NC(=O)Cn2nnc(C(=O)NCc3cccs3)c2N)c1 | 12.3
6 | COc1ccc2c(=O)cc(-c3ccccc3)n(C)c2c1 | 3.76
7 | CCCc1[nH]n(-c2nc3ccccc3s2)c(=O)c1C=NCCCN(CC)CC | -57.6
8 | CCC(Oc1ccccc1)C(=O)NC1CCCCCC1 (stereo not drawn) | 8.64
9 | O=C(NCc1ccccc1OC(F)(F)F)C1CCC(=O)N(CCc2ccccn2)C1 (stereo not drawn) | 6.11
10 | O=S(=O)(NCCCN1CCN(c2ccccc2F)CC1)c1cccc2cccnc12 | -11.9
11 | C=CCn1c(SCC(=O)N2CCCCC2)nc(O)cc1=O | 4.63
12 | C=CCn1c(C)cc(C2=NNC(=Nc3ccc(C)cc3)SC2)c1C | 8.24
13 | COc1ccccc1-n1c(CNC(=O)c2ccco2)nnc1SCC(=O)Nc1ccc(F)cc1 | 5
14 | COc1ccccc1OCCNC(=O)C(CCSC)NC(=O)c1ccccc1Cl (stereo not drawn) | 5.88
15 | COC(=O)c1cccc(Oc2nc3c(c(=O)n(C)c(=O)n3C)n2C(C)C)c1 | 6.15
16 | CCN=c1scc(-c2ccc(F)cc2)n1/N=C/c1ccccn1 | 11.2
17 | CS(=O)(=O)N(Cc1ccccc1)c1ccc(C(=O)Nc2cccnc2)cc1 | 1.83
18 | COc1ccc(Nc2cc(=O)n(C3CCCCC3)c(=O)[nH]2)c(OC)c1 | 7.36
19 | COC(=O)c1ccc(NC(=O)COc2coc(CN3CCc4ccccc43)cc2=O)cc1 | 7.9

Row | SMILES | hERG current change (%, negative = inhibition) at 1uM [%]
20 | CCCCc1nc(Cl)c(C#N)c2c1CCCC2 | 5.82
21 | O=C(COc1cc2oc(=O)c3c(c2cc1Cl)CCC3)NCc1ccncc1 | 9.1
22 | Cn1c(SCC(=O)NC(C)(C)C)nnc1-c1cccc(NC(=O)c2ccccc2F)c1 | 4.89
23 | N#Cc1c(-c2ccco2)cc(-c2ccccn2)nc1N | 10.6
24 | Cn1c(C(=O)N2CCc3ccccc3C2)cc2oc3ccccc3c21 | 15
25 | CSc1ccc(NC(=O)NCc2cccnc2)cc1 | 16.4
26 | CCCC[N+]12CCC(CC1)C(=C(c1ccccc1)c1ccccc1)C2.[Br-] | -43.7
27 | CCN(C(=O)COC(=O)CSc1ccc(C(N)=O)cc1[N+](=O)[O-])C1CCCCC1 | 4.2
28 | CCOC(=O)CNC(=O)CSc1nnc(-c2ccccc2)c(-c2ccccc2)n1 | 16.3
29 | COc1ccc(CNC(=O)CN2C(=O)CSc3ccc(S(=O)(=O)N4CCOCC4)cc32)c(OC)c1 | 13.1
30 | O=C(Nc1ccnn1C1CCN(CCCC2CCCC2)CC1)c1ccccc1Cl | -99
31 | COc1ccc(NC(=O)CSCC(=O)N=c2sccn2C)cc1 | 7.94
32 | CSCC(O)Cn1ncc2ccccc2c1=O (stereo not drawn) | 11.8
33 | CCOc1ccccc1NC(=O)CN1C(=O)COc2ccc(S(=O)(=O)N3CCOCC3)cc21 | 5.42
34 | CCC(/C=N/NC(=O)C(N)=O)CC | 15.8
35 | CC(C)CNC(=O)c1cc(-c2ccc(Cl)c(Cl)c2)on1 | 3.97
36 | OCCC1CN(Cc2ccc(-n3cccn3)cc2)CCN1Cc1ccccc1 (stereo not drawn) | -28.5
37 | CCn1c(CC(=O)Nc2ccc(C)cc2)nnc1SCC(=O)N1CCN(c2ccccc2)CC1 | 7.87
38 | O=C(CSCCO)N1CCc2ccccc21 | -7.03

Row | SMILES | hERG current change (%, negative = inhibition) at 1uM [%]
39 | Cc1cc(NCCCN(C)C)n2nc(-c3cccs3)cc2n1 | 0.952
40 | COc1cc(C(C)=O)ccc1OCC(O)CN1CCN(c2ccccc2)CC1 (stereo not drawn) | 1.08
41 | COc1ccccc1-n1cnc2cc(NCc3ccccc3O)ccc21 | 6.52
42 | CC(C)c1ccc(Nc2nnc(SCC(=O)Nc3ncc(S(=O)(=O)c4ccc([N+](=O)[O-])cc4)s3)s2)cc1 | 5.87
43 | CCOC(=O)c1c(N/N=C/c2ccncc2)n[nH]c1C | 0.746
44 | CCCCN(C(=O)c1ccc2c(c1)OCO2)c1ccccc1 | 11
45 | Cc1ccc2c(c1)N(C(=O)CCC(=O)NCCCN1CCOCC1)CCO2 | 13.9
46 | COc1ccc(N2CCN(S(=O)(=O)c3ccc4c(c3)N(C(C)=O)CCO4)CC2)cc1 | 12.6
47 | COc1ccc(O)c(/C=N/NS(=O)(=O)c2ccc(C)cc2)c1 | 13
48 | O=C(COC(=O)COc1ccc(Cl)cc1)NC1CCS(=O)(=O)C1 (stereo not drawn) | 5.83
49 | O=C(O)c1[nH]c2ccccc2c1-c1ccccc1 | 0.536
50 | CC(Nc1oc(-c2ccco2)nc1C#N)c1ccccc1 (stereo not drawn) | 17.2
51 | CCCC(CCC)C(=O)Nc1ccc2c(c1)N(C(=O)CN1CCN(C)CC1)c1ccccc1CC2 | 3.33
52 | COC(=O)c1ccccc1OS(=O)(=O)N(C)C | 14.2
53 | O=S(=O)(NCc1ccc(F)cc1)c1ccc(-n2cnnn2)cc1 | 13.9
54 | CCc1nc2nc(C)c(NS(=O)(=O)c3ccc(C4CCCCC4)cc3)c(=O)n2[nH]1 | 13.5
55 | COc1cc(-c2cc(OC)c3c(C)oc(C)c3c(=O)c2)ccc1O | 3.44
56 | O=C(CCN1CCN(CC(=O)Nc2ccccc2F)CC1)Nc1ccccc1F | -38.4
57 | O=C(NCC(c1ccco1)N1CCCC1)c1ccc(S(=O)(=O)Nc2ccccc2Cl)cc1 (stereo not drawn) | 6.69

From paper PMC4336329 (PLoS ONE, 2015)
